Reference: PubChem BioAssay AID686978 (National Center for Advancing Translational Sciences (NCATS), 2013)
In all, about 420,000 compounds went through this assay and about 64,000 (15%) were called active. The inconclusive results got no clear call from the source; some entries with a clear call stand among them for comparison. The call rests on the fitted dose curve; in most records, active means well fitted inhibition curve with a large enough effect; inconclusive means small, poorly fitted or top-dose-only effect; inactive means flat fitted curve, though single readings scatter. Potencies of inconclusive entries are left out as doubtful fits.

assay: qHTS for Inhibitors of human tyrosyl-DNA phosphodiesterase 1 (TDP1): qHTS in cells in absence of CPT; details: DT40 Tdp1-/- hTDP1 cells, no CPT, ATP luminescence, 48 h; activity change, negative = growth inhibition: at 46.2 µM (top of the series) unless noted; further: nearly all actives have a fitted effect of over 55% in size
Outline: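 Growth of hTDP1-complemented DT40 Tdp1-knockout cells is measured by ATP luminescence after at least 48 hr compound exposure at 37 °C, with DMSO substituting for the 20 nM CPT used in the parallel screen.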
On the % scale 0 is the no-effect control and ±100 the full control effect; potency means the concentration at half of the fitted maximal effect; tags describe the fitted curve by direction and shape.

Row | SMILES | Potency | activity change, negative = growth inhibition
1 | C#CC(C)(C)NC(=O)c1sccc1Oc1ccc(F)cc1[N+](=O)[O-] | inconclusive [inhibitor, single point] | –
2 | Cc1cccc(C(=O)N2CCc3cc(-c4nc(NC(=O)CN5CCCC5)sc4C)ccc32)c1 | inconclusive [inhibitor, single point] | –
3 | O=C(NCc1ccc(Cl)cc1)c1n[nH]c([N+](=O)[O-])c1Cl | inconclusive [inhibitor, single point] | –
4 | Oc1c(C(c2ccc(Cl)cc2)N2CCCC2)cc(Cl)c2cccnc12 (stereo not given) | active: 5.17 µM | –
5 | CCC1CCCCN1C(=O)Cn1c(=O)n(CCCCCC(=O)NCc2ccc(F)cc2)c(=O)c2sccc21 (stereo not given) | inconclusive [inhibitor, single point] | –
6 | O=C1C2C(C(=O)N1Cc1cccnc1)C1C=CC2C12CC2 (stereo not given) | – | inactive: -16.1%
7 | CCn1c(SCC(=O)N2CCN(c3ccccc3)CC2)nnc1-c1ccoc1C | – | inactive: -9.53%
8 | Cc1noc(C)c1NC(=O)N(C)C[C@@H]1OCc2cnnn2CCCC(=O)N([C@@H](C)CO)C[C@@H]1C | – | inactive: 0.368%
9 | COc1ccc(C(CC(=O)Nc2ccc(C)cn2)N2Cc3ccccc3C2=O)cc1 (stereo not given) | inconclusive [inhibitor, single point] | –
10 | COc1ccc2oc(C)c(C(=O)c3ccc(C)cc3)c2c1 | – | inconclusive: -31.6% [inhibitor]
11 | CNc1cc(-c2cc(OC)ccc2OC)ncn1 | – | inactive: -7.41%
12 | CCc1cccc(NC(=O)Cn2cc(C(=O)c3ccncc3)c(=O)c3cc(C)c(C)cc32)c1 | inconclusive [inhibitor, single point] | –
13 | COc1cccc(OC(=O)c2ccccc2)c1OC(=O)c1ccccc1 | inconclusive [inhibitor, single point] | –
14 | CCN(Cc1ccccc1)C(c1ccncc1)c1nnnn1C(C)(C)C (stereo not given) | inconclusive [inhibitor, single point] | –
15 | CCn1c(=O)c2cc(C(=O)NCCCN(C)Cc3ccccc3)sc2c2ccccc21 | inconclusive [inhibitor, single point] | –
16 | ClCc1csc(-c2ccc(Cl)cc2)n1 | active: 14.6 µM | –
17 | Cc1ccc(NC(=S)NC(=O)c2ccc(-c3ccccc3)cc2)cc1 | active: 4.61 µM | –
18 | CCOC(=O)N1CCN(CC(O)COc2ccc(OC)cc2C(C)(C)C)CC1 (stereo not given) | inconclusive [inhibitor, single point] | –
19 | CC1CCCN(S(=O)(=O)c2ccc(NC(=O)CN3CCN(C)CC3)cc2)C1 (stereo not given) | – | inactive: -3.29%
20 | CCCc1cc(=O)oc2cc3occ(C)c3cc12 | inconclusive [inhibitor, partial curve] | –
21 | O=C(NCc1ccc(Cl)cc1)c1ccc2c(c1)NC(=O)C(CS(=O)(=O)Cc1ccccc1Cl)N2 (stereo not given) | inconclusive [inhibitor, single point] | –
22 | Cc1cccc(C)c1Nc1nnc(SCC(=O)Nc2sccc2C#N)s1 | inconclusive [inhibitor, single point] | –
23 | CCOC(=O)C1CCN(S(=O)(=O)c2ccc3c4c2CC(=O)N4CC(C)S3)CC1 (stereo not given) | inconclusive [inhibitor, single point] | –

Row | SMILES | Potency | activity change, negative = growth inhibition
24 | Cc1ccc(C(=O)N/C(=C\c2ccco2)C(=O)NCCCn2ccnc2)cc1C | – | inactive: -5.78%
25 | CCOC(=O)N1CCN(C(=O)c2cc(COc3c(F)cccc3F)on2)CC1 | inconclusive [inhibitor, partial curve] | –
26 | Cc1ccc2ccccc2c1C(O)c1ncc(-c2ccccc2Cl)[nH]1 (stereo not given) | inconclusive [inhibitor, single point] | –
27 | COc1ccc(C)cc1NC(=O)Nc1cnccn1 | inconclusive [inhibitor, single point] | –
28 | Cc1ccc(C)c(N(C(=O)c2snc(C(N)=O)c2N)C(C(=O)NCC2CCCO2)c2ccc(C)o2)c1 (stereo not given) | active: 10.3 µM | –
29 | CCN(C(=O)c1ccc2c(=O)n3c(nc2c1)CCCCC3)c1cc(OC)ccc1OC | – | inactive: 11.3%
30 | CCCOc1ccc2oc(=O)c3c(c2c1)CCCN3C(=O)CN(C)Cc1ccccc1 | active: 20.6 µM | –
31 | CCC[C@H]1CN(c2ccc(Br)cc2)C(=O)[C@@H]1CC(=O)Nc1ccc(OC)cc1 | active: 16.4 µM | –
32 | Cc1ccc(-n2c(SCC(=O)NCc3cccs3)nnc2-c2ccoc2C)cc1 | inconclusive [inhibitor, partial curve] | –
33 | Cc1ccc2[nH]c3c(=O)n(Cc4ccncc4)cnc3c2c1 | – | inactive: -11%
34 | COc1ccc(-c2noc(CCCC(=O)NC3CCCC3)n2)cc1 | active: 16.4 µM | –
35 | CCCCOc1ccccc1C(=O)Nc1nonc1-c1ccccc1 | inconclusive [inhibitor, single point] | –
36 | O=C(NCCCO)c1cc([N+](=O)[O-])cc2c1C=Cc1ccccc1O2 | inconclusive [inhibitor, single point] | –
37 | CC(C)CC(=O)NCC1(N(C)C)CCCCC1 | – | inactive: -8.68%
38 | CCCc1ccc(OCC(=O)Nc2sc3c(c2C(=O)OC)CCCCC3)cc1 | inconclusive [inhibitor, partial curve] | –
39 | CCN(CC)S(=O)(=O)c1ccc(N=Nc2c(N)[nH]c(=O)[nH]c2=O)cc1 | – | inconclusive: -25.3% [inhibitor]
40 | N#Cc1c(-c2ccc3c(c2)OCO3)ccn2nc(-c3cccc(C(F)(F)F)c3)nc12 | inconclusive [inhibitor, single point] | –
41 | CCCN(CC(=O)Nc1ccc(F)c(F)c1F)C(=O)C1CC(=O)N(Cc2ccccc2)C1 (stereo not given) | – | inactive: -24.4%
42 | Cc1c(C(=O)NCc2ccc3c(c2)OCO3)sc(=O)n1Cc1cccc(F)c1 | inconclusive [inhibitor, single point] | –
43 | CCS(=O)(=O)N1Cc2ccccc2CC1C(=O)Nc1nc2ccc(C)cc2s1 (stereo not given) | inconclusive [inhibitor, partial curve] | –
44 | Cc1ccc(CNC(=O)CCCN2C(=O)c3cccnc3Oc3ccc(Cl)cc32)cc1 | inconclusive [inhibitor, single point] | –
45 | CC(C)Cn1c(SCC(=O)N2CCN(C(=O)c3ccco3)CC2)nc2ccccc2c1=O | – | inactive: 10.7%
